Source: PubChem BioAssay AID1030 (National Center for Advancing Translational Sciences (NCATS), 2008)
Among all 220,000 compounds or so, about 16,000 (7.3%) were called active. The inconclusive results got no clear call from the source; some entries with a clear call stand among them for comparison. Calls follow the shape of the dose curve; as a rule, active = well fitted inhibition curve with a large enough effect (not every such curve was filed as active); inconclusive = small, poorly fitted or top-dose-only effect, or another doubt; inactive = no such curve, though single readings can be large or run the other way. Potencies of inconclusive entries are left out as doubtful fits.

biological target: Aldehyde dehydrogenase 1A1 (Homo sapiens) (UniProt P00352); experiment: qHTS Assay for Inhibitors of Aldehyde Dehydrogenase 1 (ALDH1A1); settings: Purified ALDH1A1, NADH fluorescence, propionaldehyde substrate; series mostly up to 75.3 µM
Potency is read from the fitted curve at half-maximal effect; tags tell the direction and shape of the fitted curve.

UniProt P00352, sequence (P00352 whole entry, looked up): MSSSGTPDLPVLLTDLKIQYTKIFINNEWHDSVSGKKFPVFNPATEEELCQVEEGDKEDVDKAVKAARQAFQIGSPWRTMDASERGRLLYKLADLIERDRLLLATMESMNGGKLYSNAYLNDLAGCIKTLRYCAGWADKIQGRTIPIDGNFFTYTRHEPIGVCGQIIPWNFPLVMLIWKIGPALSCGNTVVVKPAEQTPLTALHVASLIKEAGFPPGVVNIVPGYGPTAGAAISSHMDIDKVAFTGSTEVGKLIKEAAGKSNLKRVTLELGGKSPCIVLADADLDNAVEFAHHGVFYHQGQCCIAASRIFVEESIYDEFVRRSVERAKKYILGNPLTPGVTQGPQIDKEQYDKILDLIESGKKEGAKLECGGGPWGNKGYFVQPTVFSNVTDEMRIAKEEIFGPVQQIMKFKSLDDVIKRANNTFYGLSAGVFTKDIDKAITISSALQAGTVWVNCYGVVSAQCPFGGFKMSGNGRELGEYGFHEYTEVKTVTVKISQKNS

Row | Structure (SMILES) | Potency
1 | O=S(=O)(c1ccc(N2CCN(Cc3ccc4c(c3)OCO4)CC2)nc1)N1CCOCC1 | inconclusive [inhibitor, partial curve]
2 | O=C1CCc2cc(S(=O)(=O)N3CCC(C(=O)NC4CCCc5ccccc54)CC3)ccc2N1 (centres undefined) | inconclusive [inhibitor, full curve]
3 | O=C(CSc1ncn[nH]1)N(C1CCCCC1)C1CCCCC1 | inconclusive [inhibitor, single point]
4 | Cc1ccc(/C=C/C(=O)N2CCc3ccccc32)o1 | inconclusive [inhibitor, single point]
5 | N#Cc1c(NC(=O)CSc2nnnn2C2CCCC2)sc2c1CCCC2 | active: 3.55 µM
6 | COc1ccc(N(CCC#N)C(=O)/C(C#N)=C/c2cccs2)cc1 | active: 14.1 µM
7 | CCOC(=O)c1sc(NC(=O)Nc2cccc(Cl)c2)cc1C | inconclusive [inhibitor, single point]
8 | CNCCCC1Sc2ccccc2Oc2ccccc21 (centres undefined) | inactive
9 | CCOC(=O)C1(Cc2ccc(Cl)cc2)CCN(C(=O)CCc2ccncc2)CC1 | inconclusive [inhibitor, partial curve, poor fit]
10 | CCN(CC)c1ccc(C2CC(=O)Nc3cc(OC)c(OC)cc32)cc1 (centres undefined) | active: 12.6 µM
11 | O=C(NC(C(=O)N/N=C/c1ccccc1)c1n[nH]c(=O)c2ccccc12)c1ccccc1 (centres undefined) | inconclusive [inhibitor, single point]
12 | C=CCOC(=O)C1=C[C@@H](c2ccc(Br)cc2)[C@H](CCCO)[C@@H](OCC)O1 | inconclusive [inhibitor, partial curve]
13 | COC(=O)Cn1c(=NC(=O)c2cccc(OC)c2)sc2cc(OC)ccc21 | inconclusive [inhibitor, partial curve]
14 | COCCCNC(=O)Cn1nnc(-c2ccc(NC(=O)c3ccccc3OC)cc2)n1 | inconclusive [inhibitor, single point]
15 | CCC1Oc2ccc(C)cc2N(CC(=O)NCCC2=CCCCC2)C1=O (centres undefined) | inconclusive [inhibitor, single point]
16 | O=S(=O)(c1ccc(OCC(O)CN2CCN(c3ccccc3O)CC2)cc1)N1CCOCC1 (centres undefined) | inconclusive [inhibitor, single point]
17 | O=C1OC(c2ccccc2)c2ccc3ccccc3c21 (centres undefined) | inconclusive [inhibitor, single point]
18 | O=Cc1ccc(-c2ccc(F)cc2)o1 | active: 1.41 µM
19 | O=Nc1ccc(O)c2ncccc12 | inconclusive [inhibitor, single point]
20 | Nc1c2c(nc3ccc(Br)cc13)N(c1ccccc1)CC2 | inconclusive [inhibitor, single point]
21 | CCOc1ccc(CNc2cccc(SC)c2)cc1 | inconclusive [inhibitor, partial curve]
22 | COC(=O)c1cc2c(=O)n3cccc(C)c3nc2n(Cc2cccnc2)c1=N | inconclusive [inhibitor, full curve]

Row | Structure (SMILES) | Potency
23 | Cc1ccc(C(=O)C(OC(=O)CN2C(=O)c3ccccc3C2=O)c2ccccc2)cc1 (centres undefined) | inactive
24 | C=CCOC(=O)N[C@@H](CCc1ccccc1)C(C(C)=O)C(C)=O | inactive
25 | COc1cccc(-c2nc(N3CCN(Cc4ccccc4)CC3)c3ccccc3n2)c1O | inconclusive [inhibitor, partial curve]
26 | O=[N+]([O-])c1ccc(N2CCCCC2)c(Cl)c1N1CCCCC1 | inconclusive [inhibitor, single point]
27 | COc1ccc2sc(NC(=O)CC(C)C)nc2c1 | active: 25.1 µM
28 | Cc1ccc2nc(NCCC(=O)O)nc(-c3ccccc3)c2c1 | inconclusive [inhibitor, single point]
29 | Cc1c(CN(C)C(=O)/C=C/c2ccc([N+](=O)[O-])cc2)cnn1C | inactive
30 | Cc1cccc(NC(=O)CSc2nnc(-c3ccccc3C)o2)c1 | inactive
31 | Cc1[nH]n(-c2ccc(Cl)cc2)c(=O)c1C=Nc1ccc(S(=O)(=O)N2CCOCC2)cc1 | inactive
32 | COCCOC(=O)C1=C(C)OC(N)=C(C#N)C1c1ccco1 (centres undefined) | inconclusive [inhibitor, single point]
33 | CCCCOc1ccc(C(=O)NCC2(c3ccccc3)CCOCC2)cc1 | inconclusive [inhibitor, single point]
34 | Cc1cccc(NC(=O)CCNS(=O)(=O)c2cccc3nonc23)c1C | inconclusive [inhibitor, single point]
35 | CC1(C)Cc2nc3sc4c(SCC(=O)NC(c5ccccc5)c5ccccc5)ncnc4c3cc2CO1 | inconclusive [inhibitor, single point]
36 | Cc1nn(Cc2ccccc2)c2sc(C(=O)NCc3cccnc3)cc12 | inconclusive [inhibitor, single point]
37 | CC(NC(=O)c1cc2cc([N+](=O)[O-])ccc2oc1=O)C1CCCO1 (centres undefined) | inconclusive [inhibitor, single point]
38 | CC1CC(C)CN(C(=O)c2ccc3c(c2NCCO)C(=O)c2ccccc2C3=O)C1 (centres undefined) | inconclusive [inhibitor, single point]
39 | CCC(C)(C)NC(=O)CN(C(=O)c1csnn1)c1ccccc1-c1ccccc1 | inactive
40 | CCOC(=O)c1c(NC(=O)CSc2nnnn2-c2ccc(OC)cc2)sc(C)c1C | active: 1 µM
41 | CCOC(=O)c1c(NC(=O)CN2CCN(C(=O)c3ccco3)CC2)sc2c1CCCC2 | active: 23.8 µM
42 | CC(C)(C)OC(=O)Cn1c(=O)cnc2ccccc21 | inconclusive [inhibitor, partial curve]
43 | O=C(Nc1ccccc1NS(=O)(=O)c1ccc(F)cc1)C1CCCC1 | inconclusive [inhibitor, partial curve, poor fit]
44 | Nc1ccccc1C(=O)N/N=C1\C2CN3CCN(C2)CC1(c1ccccc1)C3 | inconclusive [inhibitor, partial curve]
